# The whole screen tested about 270,000 compounds, of which about 620 (0.23%) were called active. The inconclusive results got no clear call from the source; some entries with a clear call stand among them for comparison. Calls follow the shape of the dose curve; as a rule, active = well fitted inhibition curve with a large enough effect in the polarisation, with a control signal flat (not every such curve was filed as active); inconclusive = small, poorly fitted or top-dose-only effect, or effect the other way, or a change in a side signal; inactive = no such curve, though single readings can be large or run the other way; the % refers to the polarisation. Potencies beside an inconclusive call are fits to weak or partial responses and may not hold up. A note “side channel” means that the fit belongs to a control or component signal, not to the main read-out.
# Molecular target: Menin (Homo sapiens) (UniProt O00255)
# Sequence of UniProt O00255 (O00255 whole entry, looked up): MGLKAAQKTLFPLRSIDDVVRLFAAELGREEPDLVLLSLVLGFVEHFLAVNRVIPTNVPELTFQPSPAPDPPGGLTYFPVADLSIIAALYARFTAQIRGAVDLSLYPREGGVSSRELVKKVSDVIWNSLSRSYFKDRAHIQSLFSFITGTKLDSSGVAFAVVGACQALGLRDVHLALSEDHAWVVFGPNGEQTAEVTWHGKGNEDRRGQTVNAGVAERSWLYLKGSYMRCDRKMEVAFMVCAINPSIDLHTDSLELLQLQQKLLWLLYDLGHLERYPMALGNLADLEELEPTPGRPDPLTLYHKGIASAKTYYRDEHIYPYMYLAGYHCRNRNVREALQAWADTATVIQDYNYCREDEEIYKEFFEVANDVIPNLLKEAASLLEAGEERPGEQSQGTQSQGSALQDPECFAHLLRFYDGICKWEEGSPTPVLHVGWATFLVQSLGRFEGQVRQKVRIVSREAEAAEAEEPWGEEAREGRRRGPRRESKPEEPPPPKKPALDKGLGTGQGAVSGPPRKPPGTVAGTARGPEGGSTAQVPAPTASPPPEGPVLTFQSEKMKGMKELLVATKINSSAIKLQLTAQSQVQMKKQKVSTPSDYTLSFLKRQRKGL
# Test: qHTS Assay for Inhibitors Targeting the Menin-MLL Interaction in MLL Related Leukemias: Competition With Texas Red Labeled MLL-derived Mutant Peptide; as to FP activity change, negative = inhibition: % of control where 0% means no effect
# Conditions: fluorescence polarization; FP activity change, negative = inhibition: at 61.6 µM (top of the series)
# Potency is read from the fitted curve at half-maximal effect; tags tell the direction and shape of the fitted curve or compound fluorescence and quenching.
SMILES,Potency,"FP activity change, negative = inhibition"
Cc1ccc(C(=O)c2oc3ccccc3c2NC(=O)c2cc(-c3ccccc3O)n[nH]2)cc1,"inconclusive: 10 µM [inhibitor, partial curve]",
COc1ccc(NC(=O)c2ccc([N+](=O)[O-])o2)cc1,"inconclusive: 11.2 µM [quencher, side channel, partial curve]",
C/C(N)=C(/C#N)C(=O)COC(=O)c1cc(-c2ccc(C)cc2)nc2ccccc12,"inconclusive: 3.98 µM [quencher, side channel, full curve]",
Cc1cc(S(=O)(=O)N2CCCC(N3CCOCC3)C2)c(C)cc1Cl (stereo not given),"inconclusive: 31.6 µM [inhibitor, single point]",
N#C/C(=C\Nc1ccc2c(c1)OCCO2)c1nc2ccccc2[nH]1,"inconclusive: 3.98 µM [quencher, side channel, full curve]",
O=C(CSc1nnc(Nc2ccccc2F)s1)c1cc2ccccc2o1,"inconclusive: 39.8 µM [quencher, side channel, single point]",
O=C(Nc1cccc(S(=O)(=O)N2CCCCC2)c1)C1CC(=O)N(Cc2ccco2)C1 (stereo not given),"inconclusive: 10 µM [inhibitor, partial curve]",
CCC(C)(C)C(=O)O[C@@H]1C[C@@H](C)C=C2C=C[C@H](C)[C@H](CC[C@@H]3C[C@@H](O)CC(=O)O3)[C@H]21,,inactive: -13.2% [at 24.8 µM]
Cn1c(-c2sc(=S)n(-c3ccccc3)c2N)nc2ccccc21,"inconclusive: 17.8 µM [quencher, side channel, partial curve]",
CCC(C)C(NC(C)=O)C(=O)NC(=O)NC(c1ccccc1)c1ccccc1 (stereo not given),"inconclusive: 28.2 µM [fluorescent, side channel, partial curve]",
COc1ccccc1CCC(=O)N(C)C1CCCN(Cc2ccccc2F)C1 (stereo not given),"inconclusive: 10 µM [fluorescent, side channel, partial curve]",
Cc1cc(S(=O)(=O)Nc2cccc(C(=O)O)c2)c(C)c(S(=O)(=O)c2ccc(Cl)cc2)c1,"inconclusive: 20 µM [quencher, side channel, single point]",
CCOc1cc(/C=C\[N+](=O)[O-])ccc1OCC(=O)Nc1ccccc1C,,inactive: 1.2%
COc1ccc2c(c1)NC(C)(C)C=C2C,"inconclusive: 22.4 µM [inhibitor, single point]",
Cc1ccc2c(c1)c1c(n2CC(O)CN2CCCCCC2)CCCC1 (stereo not given),"inconclusive: 14.1 µM [inhibitor, partial curve]",
COc1ccc(S(=O)(=O)C(C#N)c2nc3ccccc3nc2N2CCCC(C)C2)cc1 (stereo not given),"inconclusive: 35.5 µM [quencher, single point]",
Cc1ccc(C(=O)/C=C/NNC(=O)c2ccccc2O)cc1,"inconclusive: 20 µM [quencher, side channel, single point]",
COc1ccc(C2=Nn3c(nnc3-c3cccc(OC)c3OC)SC2)c(OC)c1,"inconclusive: 10 µM [fluorescent, side channel, partial curve]",
Cc1cc(C)cc(NC(=O)C(OC(=O)c2ccc([N+](=O)[O-])o2)c2ccccc2)c1 (stereo not given),"inconclusive: 31.6 µM [quencher, side channel, single point]",
CNc1nc2c(N)ncnc2n1[C@@H]1O[C@@H]2COP(=O)(O)O[C@H]2[C@H]1O,"inconclusive: 28.2 µM [inhibitor, single point]",
COc1cc([N+](=O)[O-])ccc1NC(=O)CSc1nc2ccccc2n1-c1ccccc1,"inconclusive: 20 µM [quencher, side channel, single point]",
O=S(=O)(Nc1ccccc1O)c1ccc(-c2ccccc2)cc1,"inconclusive: 39.8 µM [quencher, side channel, single point]",
CCN(CC)c1ccc(/C=C/C(=O)C2C(=O)C=C(C)OC2=O)cc1 (stereo not given),"inconclusive: 15.8 µM [fluorescent, side channel, partial curve]",
O=C(c1ccc2c(c1)OCO2)N1CCN(S(=O)(=O)c2ccc(Cl)cc2)CC1,"inconclusive: 7.94 µM [inhibitor, partial curve]",
Cc1cc(NS(=O)(=O)c2ccc(NC(=O)/C=C/c3ccccc3Cl)cc2)no1,"inconclusive: 15.8 µM [quencher, side channel, partial curve]",
COc1ccc(-c2ccc(C)cc2)cc1C1C2C=CCCC2(C)C(=O)N1Cc1ccccc1 (stereo not given),"inconclusive: 3.55 µM [fluorescent, side channel, single point]",
O=C(c1cccc(Cl)c1)N1CCC(N2CCC(C(=O)N3CCCC3)CC2)CC1,"inconclusive: 3.16 µM [quencher, side channel, single point]",
CC(C)CC(NC(=O)NC(CCC(=O)O)C(=O)O)C(=O)O (stereo not given),,inactive: 25.3%

SMILES,Potency,"FP activity change, negative = inhibition"
COc1cccc(CN2C(=O)CN(C3CCCCC3)C(=O)C2c2ccc(F)cc2)c1 (stereo not given),"inconclusive: 6.31 µM [fluorescent, side channel, partial curve]",
O=C(Nc1nc2ccc(SC(F)F)cc2s1)c1ccc(NS(=O)(=O)c2ccc(F)c(F)c2)cc1,"inconclusive: 2.51 µM [quencher, side channel, full curve]",
O=C(C1=C[C@@H](c2coc3ccccc3c2=O)C[C@@H](OCCCCO)O1)N1CCN(Cc2ccc3c(c2)OCO3)CC1,"inconclusive: 2.51 µM [fluorescent, side channel, full curve]",
CN1\C(=C/C=C/C=C/C=[N+](C)C)C(C)(C)c2ccccc21,"inconclusive: 1 µM [fluorescent, side channel, full curve]",
COc1ccccc1CC(=O)Nc1ccc2[nH]ncc2c1,"inconclusive: 5.01 µM [quencher, side channel, single point]",
Cc1cc(C)cc(C(=O)Nc2nc3ccccc3[nH]2)c1,"inconclusive: 14.1 µM [quencher, side channel, partial curve]",
O=c1c2cn[nH]c2nc(SCc2c(F)cccc2F)n1-c1ccc(Cl)cc1,,inactive: -5.29%
O=C(CSc1ccc(C(F)(F)F)cc1[N+](=O)[O-])Nc1ccc2ccccc2c1,"inconclusive: 39.8 µM [quencher, side channel, single point]",
O=c1c2cc(N3CCOCC3)ccc2[nH]c(=S)n1Cc1cccc(Cl)c1,"inconclusive: 10 µM [quencher, side channel, partial curve]",
COc1ccc(CC(=O)Nc2cc(=O)n(C)c(=O)n2C)cc1,,inactive: 4.59%
Cc1cc(=O)[nH]c2c(N=Nc3ccc(O)cc3)c(N)nn12,"inconclusive: 31.6 µM [quencher, side channel, partial curve]",
CC(C)(C)c1ccc(N/N=C(\C#N)S(=O)(=O)C(C)(C)C)cc1,"inconclusive: 15.8 µM [quencher, side channel, partial curve]",
Cc1cccc(S(=O)(=O)c2c(N)n(Cc3ccco3)c3nc4ccccc4nc23)c1,"inconclusive: 17.8 µM [quencher, side channel, single point]",
CCc1ccccc1N1CSC2=C(C#N)C(c3cc(OC)c(OC)cc3OC)CC(=O)N2C1 (stereo not given),"inconclusive: 39.8 µM [quencher, side channel, single point]",
COc1cc(CN2CCC(n3nccc3NC(=O)c3ccccc3OC)CC2)ccc1F,"inconclusive: 39.8 µM [inhibitor, single point]",
Cc1ccc(-c2nnc(N3CCN(CCO)CC3)c3ccccc23)cc1,"inconclusive: 15.8 µM [inhibitor, partial curve]",
Cn1nccc1NC(=O)Nc1cccc(Br)c1,,inactive: 16.8%
CS(=O)(=O)N(CC(=O)N1CCN(C(c2ccccc2)c2ccccc2)CC1)C1CCCCC1,"inconclusive: 3.55 µM [fluorescent, side channel, full curve, poor fit]",
CCOc1cc(/C=N/NC(=O)c2ccccn2)ccc1OC(=O)c1cccs1,"inconclusive: 39.8 µM [quencher, side channel, single point]",
Cc1cc(C)c(S(=O)(=O)NCc2csc(C)n2)c(C)c1,"inconclusive: 39.8 µM [inhibitor, partial curve, poor fit]",
CN1C(=O)c2ccc(NC(=O)c3cccc(N4C(=O)CCC4=O)c3)cc2C1=O,"inconclusive: 31.6 µM [quencher, side channel, single point]",
Cc1cc(Cl)ccc1OCc1nc(-c2ccc(O)cc2)n[nH]1,"inconclusive: 25.1 µM [quencher, side channel, single point]",
Cc1ccc(C)c(N2CCN(C(=O)CCCOc3cc(=O)n(C)c4ccccc34)CC2)c1,"inconclusive: 6.31 µM [fluorescent, side channel, partial curve]",
Cc1sc(NC(=O)CSc2nnc(COc3ccccc3)n2C)c(C#N)c1C,"inconclusive: 22.4 µM [fluorescent, side channel, single point]",
CN1CCN(c2ccnc(-c3cccc(NS(C)(=O)=O)c3)n2)CC1,"inconclusive: 8.91 µM [quencher, side channel, single point]",
Cc1nc2cc(NC(=O)c3ccc(S(=O)(=O)N(C)c4ccccc4)cc3)ccc2o1,"inconclusive: 14.1 µM [quencher, side channel, partial curve]",
O=C(CCc1c[nH]c2ccccc12)OCc1cccc([N+](=O)[O-])c1,"inconclusive: 35.5 µM [quencher, side channel, single point]",

# Reference: PubChem BioAssay AID1768 (National Center for Advancing Translational Sciences (NCATS), 2009)
